According to paper PMC4336329 (PLoS ONE, 2015):
Out of some 310,000 compounds screened, about 2,200 (0.71%) showed an effect of 50% or more. The effect is printed as a negative number. This is one part of the list.

target: human ether-à-go-go-related gene (hERG) potassium channel (human, UniProt Q12809); experiment: primary screen, population patch clamp on CHO cells stably expressing hERG
Sequence (Q12809 whole entry, looked up): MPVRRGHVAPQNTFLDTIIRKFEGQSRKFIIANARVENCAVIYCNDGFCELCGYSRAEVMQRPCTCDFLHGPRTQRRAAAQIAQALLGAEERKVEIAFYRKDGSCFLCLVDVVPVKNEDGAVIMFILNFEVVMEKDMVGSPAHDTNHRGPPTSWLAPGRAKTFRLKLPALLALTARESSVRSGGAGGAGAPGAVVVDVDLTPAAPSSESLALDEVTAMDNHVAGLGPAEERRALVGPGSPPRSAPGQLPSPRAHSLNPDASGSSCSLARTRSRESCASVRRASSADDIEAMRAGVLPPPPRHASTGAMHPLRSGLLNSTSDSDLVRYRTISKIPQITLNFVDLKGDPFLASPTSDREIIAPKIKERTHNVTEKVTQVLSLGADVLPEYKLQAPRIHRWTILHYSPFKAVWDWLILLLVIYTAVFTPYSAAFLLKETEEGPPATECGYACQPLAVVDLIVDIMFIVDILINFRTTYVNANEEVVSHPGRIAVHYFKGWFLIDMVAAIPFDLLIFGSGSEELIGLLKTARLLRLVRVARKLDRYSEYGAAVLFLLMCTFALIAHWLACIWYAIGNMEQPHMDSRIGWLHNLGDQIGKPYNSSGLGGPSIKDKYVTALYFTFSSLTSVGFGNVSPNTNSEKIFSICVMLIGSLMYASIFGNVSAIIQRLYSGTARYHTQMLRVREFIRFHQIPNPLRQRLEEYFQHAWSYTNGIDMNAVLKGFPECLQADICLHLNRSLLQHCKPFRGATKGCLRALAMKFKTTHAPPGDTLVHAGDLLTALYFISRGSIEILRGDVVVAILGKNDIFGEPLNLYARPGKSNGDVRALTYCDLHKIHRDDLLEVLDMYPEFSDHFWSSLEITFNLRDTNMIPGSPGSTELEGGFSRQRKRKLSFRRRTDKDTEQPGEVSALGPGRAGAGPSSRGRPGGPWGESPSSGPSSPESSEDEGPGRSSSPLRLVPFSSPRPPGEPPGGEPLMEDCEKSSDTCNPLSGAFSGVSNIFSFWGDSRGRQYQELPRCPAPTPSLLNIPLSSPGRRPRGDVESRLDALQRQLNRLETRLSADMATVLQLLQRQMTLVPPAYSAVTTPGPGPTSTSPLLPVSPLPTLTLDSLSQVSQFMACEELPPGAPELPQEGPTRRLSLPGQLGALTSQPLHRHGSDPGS

Compound | hERG current change (%, negative = inhibition) at 1uM [%]
O=C(CSc1nnc(-c2ccc(Cl)cc2)n1Cc1ccco1)NCc1ccc2c(c1)OCO2 | -51.6
O=c1c2c(-c3ccccc3)ccnc2[nH]n1-c1ccccc1 | 13.4
CCC(=O)N1CC2(c3ccccc3)CN(C(=O)CC)CC(c3ccccc3)(C1)C2=O | 8.28
CN(Cc1ccc(Cl)cc1)C(=O)COC(=O)c1ccc(-c2ccc(O)cc2)cc1 | 7.15
CCOC(=O)N1CCN(C(=O)c2ccc3c(=O)n(Cc4ccccc4)c(=S)[nH]c3c2)CC1 | 17
CC(C)CNC(=S)NC1CC2CCCC(C1)N2Cc1cccs1 (stereo not drawn) | -4.59
Cc1cc(=O)oc2c(C)c(OCC(=O)NCCc3ccc(S(N)(=O)=O)cc3)ccc12 | 2.27
CCOc1ccc(-c2nnn(CC#N)n2)cc1OC | 2.16
CCOC(=O)c1cc(C)sc1NC(=S)Nc1ccccc1 | 11.2
Cc1ccc(NC(=O)C2COc3ccccc3O2)cc1C (stereo not drawn) | 17.4
COc1ccc(Br)c(C(=O)NNC(=O)c2ccc(NS(=O)(=O)c3cccs3)cc2)c1 | 10.7
Cc1cc(CNC(=S)Nc2ccc(S(=O)(=O)Nc3ncccn3)cc2)nn1C | 10.2
Cc1ccccc1CN1CCC(CNC(=O)Nc2ccc(F)cc2F)CC1 | -0.0521
CS(=O)(=O)c1ccc2nnn(OCC(=O)Nc3ccc(Br)cc3Br)c2c1 | 4.14
CCOc1ccc(CN(C)C(=O)c2ccc(NS(=O)(=O)c3ccc4[nH]c(=O)[nH]c4c3)cc2)cc1 | 23.5
COc1cc(OC)cc(-c2nc(-c3ccccc3)no2)c1 | 8.16
COc1cccc(CC(=O)N2CCN(c3ccccc3[N+](=O)[O-])CC2)c1 | 8.1
Cc1ccc2nc(-c3cccc(N)c3)oc2c1 | 3.87
COc1cc(C2CC(=O)Oc3c2c(=O)n(C)c2ccccc32)ccc1O (stereo not drawn) | 10.3
O=C(c1ccccc1)c1ccc(OC(=O)N2CCOCC2)cc1 | -2.42
CCC1CCCCN1C(=O)COc1ccc(S(=O)(=O)N2CCOCC2)cc1Cl (stereo not drawn) | -5.71
CCn1c(CNc2ccc(Cl)cc2)nnc1SCc1ccccc1 | 2.39
CCN(Cc1ccncc1)C(=O)c1ccc2c(c1)S(=O)(=O)c1ccccc1C2=O | -11.7
CCCCNC(=S)Nc1ccc2cn[nH]c2c1 | -1.69
